Measured values reported in the RNAGym collection of RNA variant scans (doi:10.1093/nar/gkz1192).
The source gives no read counts; variants with many changes may rest on few reads.

B1: CPEB3 Ribozyme (parent)
chain: UAACAGGGGGCCACAGCAGAAGCGUUCACGUCGCAGCCCCUGUCAGAUUCUGGUGAAUCUGCGAAUUCUGCUGUAUAUCUC

Variants of: B1
Experiment: self-cleavage, relative activity (ratio to wild type); higher = more cleavage; in vitro, sequencing
Outline: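 Libraries of CPEB3 self-cleaving ribozyme mutants came from rounds of error-prone PCR and carried barcodes, which DNA sequencing matched to variants. In vitro transcription used T7 RNA polymerase at 37°C for 5 hours, with a further 15 min in DNase I before EDTA stopped the reaction; the ribozymes cleaved during both steps. The RNA was reverse transcribed with template switching and sequenced on Illumina. Relative activity is the cleaved/total read fraction of a variant divided by that of the unmutated ribozyme, averaged over three batches with at least 5 reads.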

Variant | self-cleavage
A13G A15C C40U U41A G61A A64G | 0
A13G A15G A18C C44U U51C U67C | 0.26
A13G A15G A18U U41A C59U U67C U69C | 0.04
A13G A15G A20C U54A | 0.49
A13G A15G A20G A35U U60G U72A U76C | 0.05
A13G A15G A20G U41A | 0.41
A13G A15G A20G U41A A47G U58C A75C | 0.39
A13G A15G A21G A35U U67C A77G | 0.18
A13G A15G A28G A45G | 0.51
A13G A15G A35U U41C A47G U72A | 0.33
A13G A15G A45G U49C | 0.43
A13G A15G A45G U60C A65U | 0.24
A13G A15G A56G U76A U80C | 0.37
A13G A15G G30A | 0.41
A13G A15G U41A A47U A64U | 0.1
A13G A15G U41C C71U U78A | 0.14
A13G A15G U67A U78A | 0.1
A13G A15G U69C U72C | 0.29
A13G A15U A21G G22A A57G U72G | 0.14
A13G A15U A28U | 0.28
A13G A15U A35G C40A A45C U72C | 0.03
A13G A15U A35U C44A A75U | 0.21
A13G A15U G30C U31A U41G A56G C62G | 0.04
A13G A15U U26A A28G U49C A65G U67C | 0.13

Variant | self-cleavage
A13G A15U U26C G52A U60C | 0.07
A13G A15U U26C U60C A64G U72C | 0.12
A13G A15U U31C A56C U60C | 0.14
A13G A15U U41A U69C | 0.28
A13G A15U U66C | 0.26
A13G A18C A20G | 0.05
A13G A18C C29U G52U | 0.14
A13G A18C U74C U76G | 0.14
A13G A18G A20G C62U | 0.13
A13G A18G A20G U31C | 0.51
A13G A18G A21G U25C | 0.45
A13G A18G A28U U43A | 0.19
A13G A18G A45G U54A U67C U72C | 0.21
A13G A18G A45U A57G U60C U80C | 0.03
A13G A18G A45U U58C | 0.11
A13G A18G A45U U60C U80C | 0.3
A13G A18G A56G U60A U76A | 0.16
A13G A18G C50G | 0.08
A13G A18G G46U A47U | 0.22
A13G A18G U25A A45G U76C | 0.07
A13G A18G U25C | 0.19
A13G A18G U25C G30U U41C A75U | 0.04
A13G A18G U25G U26C | 0.4
A13G A18G U26C U41A U51C U74C U78A | 0

Variant | self-cleavage
A13G A18G U41A | 0.24
A13G A18G U41C U51C | 0.43
A13G A18G U43A U66C U78G | 0.26
A13G A18G U43C | 0.13
A13G A18G U54C A65G U69A | 0.11
A13G A18G U58C | 0.26
A13G A18G U66C | 0.33
A13G A18G U67C U72G | 0.02
A13G A18U A20C A28G A35U U41C | 0.21
A13G A18U A20G U25C A45C | 0.09
A13G A18U A28G A56G A57G U74A | 0.06
A13G A18U A28G U41A U54A A56U | 0.22
A13G A18U A28U U66C | 0.1
A13G A18U A28U U80A | 0.21
A13G A18U A35G | 0.23
A13G A18U A47G U54C U58C C71A | 0.13
A13G A18U A56G | 0.24
A13G A18U A56U A64G U67C U76C U80C | 0.35
A13G A18U A64U U72C | 0.16
A13G A18U U25C A47G A57G | 0.38
A13G A18U U25C U26A A45G | 0.31
A13G A18U U26A C29A U41C U48G | 0.06
A13G A18U U48C U54A A56G | 0.14
A13G A18U U54A A56U U76A | 0.16

Variant | self-cleavage
A13G A18U U69A U74A | 1.15
A13G A20C A28G | 0.5
A13G A20G A21G A28U U72A | 0.44
A13G A20G A21G G22C U26C | 0.05
A13G A20G A28G U51C A56G U72C A77U | 0.13
A13G A20G A28U U43C A75U | 0.28
A13G A20G A28U U48C U69A | 0.05
A13G A20G A56G | 0.61
A13G A20G A56G U78C | 0.48
A13G A20G A77U | 0.61
A13G A20G C23U C38U U74C | 0.09
A13G A20G C37U A56G U60C A65C | 0.09
A13G A20G C37U U49A A56G U60C A65C | 0.11
A13G A20G C37U U60C A65C | 0.16
A13G A20G C39G U43A U51A | 0.25
A13G A20G C40A U48C U49C | 0.4
A13G A20G C40U A65G U76A A77U | 0.04
A13G A20G G24A | 0.39
A13G A20G G33A G36A U74A | 0.06
A13G A20G G46U A56U | 0.11
A13G A20G U26A | 0.43
A13G A20G U26A U80C | 0.48
A13G A20G U26C A35G A47U U58C U78C | 0
A13G A20G U26C U80C | 0.58

Variant | self-cleavage
A13G A20G U26G | 0.35
A13G A20G U41A U69C U80C | 0.2
A13G A20G U43C A75U | 0.36
A13G A20G U51C U72A | 0.28
A13G A20G U66C | 0.38
A13G A20G U67C | 0.68
A13G A20U A28G C34U U67C | 0.1
A13G A20U A35G U43A U51C | 0.37
A13G A20U C39A | 0.21
A13G A20U G42U G55C | 0.05
A13G A20U U25C C37A | 0.08
A13G A20U U31C U67C | 0.14
A13G A20U U43A | 0.23
A13G A20U U51A U67C | 0.12
A13G A20U U60C | 0.47
A13G A20U U78A | 0.27
A13G A21C C34U U58C | 0.06
A13G A21G A28G C29U U43C U72A U78C | 0.01
A13G A21G A28G C39G A77G | 0.05
A13G A21G A28U | 0.36
A13G A21G A28U A56G C59G A64G | 0.13
A13G A21G A45G G73U U74C U78C | 0.23
A13G A21G A45U U80C | 0.15
A13G A21G A47G U72C | 0.45

Variant | self-cleavage
A13G A21G A64C | 0.09
A13G A21G A64G | 0.24
A13G A21G A75U | 0.26
A13G A21G C39A | 0.32
A13G A21G C40G U60A U78C | 0.05
A13G A21G C44U A57G | 0.04
A13G A21G G24C C59A G61C U78C U80C | 0.07
A13G A21G G33U G55A A77G | 0.13
A13G A21G G52A A56G U72A | 0.24
A13G A21G U25C A28C | 0.38
A13G A21G U25C G52A U69C U72A | 0.14
A13G A21G U25C U66C | 0.35
A13G A21G U26G A56U | 0.22
A13G A21G U26G U51C | 0.04
A13G A21G U31A | 0.51
A13G A21G U31A A35G U48C U72C | 0.08
A13G A21G U31G A47G | 0.11
A13G A21G U41C | 0.42
A13G A21G U43G U48C U60A | 0.18
A13G A21G U49C | 0.27
A13G A21G U49C U51A | 0.21
A13G A21G U51C A77G | 0.29
A13G A21G U69C A77G | 0.09
A13G A21U A45G | 0.24

Variant | self-cleavage
A13G A21U U25C | 0.09
A13G A21U U31C G42A A57G | 0.24
A13G A21U U31C U41C U72A U80C | 0.38
A13G A21U U41A A65G U78A | 0.06
A13G A21U U43C U54C U60C | 0.19
A13G A21U U43C U72C | 0.06
A13G A28C A35U U43C U48C G61U U67A | 0.08
A13G A28G A45U U58C | 0.2
A13G A28G C37A U58A U60C U80G | 0.04
A13G A28G C37G U67C U78C | 0.05
A13G A28G C40G G52A | 0.1
A13G A28G C68A | 0.27
A13G A28G G42A A47U | 0.06
A13G A28G U43G U72A U74G A75G | 0.06
A13G A28G U49A | 0.07
A13G A28G U49C A56U | 0.16
A13G A28G U51A U80C | 0.2
A13G A28G U60A U66C | 0.1
A13G A28G U67C A77G U80C | 0.08
A13G A28U A35G A45C U76A | 0.13
A13G A28U A45G U54C G55A U76G | 0.09
A13G A28U A47G | 0.55
A13G A28U G52C U72C U76C | 0.59
